Screen size: about 310,000 compounds; about 14,000 (4.5%) showed an effect of 50% or more. Effects have a minus sign here. Some of the results follow.
Biological target: human ether-à-go-go-related gene (hERG) potassium channel (human, UniProt Q12809)
Test: primary screen, population patch clamp on CHO cells stably expressing hERG
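Further: peak tail current of the secondary pulse compared with the same well before compound.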

Sequence of human ether-à-go-go-related gene (hERG) potassium channel (Q12809 whole entry, looked up): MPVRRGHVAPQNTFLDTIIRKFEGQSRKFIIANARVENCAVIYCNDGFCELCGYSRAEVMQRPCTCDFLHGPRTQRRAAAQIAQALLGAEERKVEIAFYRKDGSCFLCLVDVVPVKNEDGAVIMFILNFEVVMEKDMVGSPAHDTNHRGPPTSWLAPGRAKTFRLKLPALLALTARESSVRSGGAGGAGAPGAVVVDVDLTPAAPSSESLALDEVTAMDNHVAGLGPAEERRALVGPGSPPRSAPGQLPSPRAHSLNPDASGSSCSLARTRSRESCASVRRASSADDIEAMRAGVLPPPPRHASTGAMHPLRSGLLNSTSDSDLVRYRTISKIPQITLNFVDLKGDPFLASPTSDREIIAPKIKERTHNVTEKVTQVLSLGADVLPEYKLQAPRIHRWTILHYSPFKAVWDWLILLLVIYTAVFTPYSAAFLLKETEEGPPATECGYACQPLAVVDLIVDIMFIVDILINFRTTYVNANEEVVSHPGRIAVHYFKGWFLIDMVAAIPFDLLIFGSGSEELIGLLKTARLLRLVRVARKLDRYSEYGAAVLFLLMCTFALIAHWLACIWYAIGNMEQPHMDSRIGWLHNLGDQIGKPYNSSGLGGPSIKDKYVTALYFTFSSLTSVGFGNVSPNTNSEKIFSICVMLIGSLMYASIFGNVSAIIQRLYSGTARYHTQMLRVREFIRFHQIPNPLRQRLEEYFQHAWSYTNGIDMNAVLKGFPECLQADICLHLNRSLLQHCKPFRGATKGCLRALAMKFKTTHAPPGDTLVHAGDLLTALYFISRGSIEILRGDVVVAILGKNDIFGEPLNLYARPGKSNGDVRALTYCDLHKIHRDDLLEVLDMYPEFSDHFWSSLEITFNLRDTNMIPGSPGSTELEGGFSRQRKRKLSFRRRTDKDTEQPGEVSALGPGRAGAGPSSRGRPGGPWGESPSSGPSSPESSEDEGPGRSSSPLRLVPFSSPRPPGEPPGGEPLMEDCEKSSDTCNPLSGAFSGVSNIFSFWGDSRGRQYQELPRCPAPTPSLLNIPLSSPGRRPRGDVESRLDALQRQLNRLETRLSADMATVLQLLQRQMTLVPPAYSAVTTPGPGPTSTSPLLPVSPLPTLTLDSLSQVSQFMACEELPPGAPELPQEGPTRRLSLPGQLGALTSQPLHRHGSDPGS

Row | Compound | hERG current change (%, negative = inhibition) at 10uM [%]
1 | O=C(CCN1CCN(c2ccccc2)CC1)Nc1ccc2c(c1)OCO2 | -35.8
2 | O=C(Nc1ccccc1)c1n[nH]c(Cn2cncn2)n1 | -8.58
3 | CCOC(=O)C1=C(C)N(CC)C(=S)NC1c1ccc(Cl)cc1 (centres unmarked) | -9.13
4 | COc1cc(NC(=O)CSc2nccc(C)n2)c(C(=O)O)cc1OC | -17.5
5 | Cc1[nH]c2ccccc2c1CCN(Cc1cccnc1)C(=S)Nc1ccc(F)cc1 | -33.4
6 | CCOCCCN1C(=O)C(=O)N(CC(=O)N2c3ccccc3NC(=O)CC2C)C1=O (centres unmarked) | 17.2
7 | Cc1ccc2c(Cl)cc(Cl)c(OCC(=O)Nc3ccc(C)c(S(=O)(=O)N(C)C)c3)c2n1 | -22.3
8 | O=C(CCN1C(=O)/C(=C/c2ccc(F)cc2)SC1=S)NC1CCS(=O)(=O)C1 (centres unmarked) | -6.33
9 | O=C1/C(=C/C=C/c2ccco2)SC(=S)N1c1ccc(O)cc1 | -0.674
10 | Cc1cccc(CS(=O)(=O)Cc2ccc(C(=O)NCCN3CCCCC3C)o2)c1 (centres unmarked) | -19.4
11 | Cc1scc(C(=O)NNC(=S)NCC2CCCO2)c1C (centres unmarked) | -16.7
12 | COc1ccc(C(=O)OCc2nnc(-c3ccccc3)o2)cc1S(=O)(=O)N1CCOCC1 | -29.4
13 | CCN(C(=O)COC(=O)c1cc(-c2ccc(C)o2)nc2ccccc12)C1CCS(=O)(=O)C1 (centres unmarked) | -66.7
14 | NS(=O)(=O)c1cccc(NC(=O)CSc2nc3ccc(Cl)cc3[nH]2)c1 | -2.83
15 | C=CCNC(=S)Nc1cccc(NC(=S)NCC=C)c1 | 1.6
16 | CCC(C)Sc1ccc([C@@H]2[C@H]3C(=O)N(CC)C(=O)[C@H]3[C@]3(C(=O)OC)CCCCN23)cc1.O=C(O)C(F)(F)F (some centres unmarked) | 14.1
17 | COc1ccc(CNc2ncnc3cc(OC)c(OC)cc23)cc1 | -3.69
18 | CCOc1ccc(N(CC(=O)NCCc2ccc(C)cc2)S(=O)(=O)c2c(C)noc2C)cc1 | 19.5
19 | Cc1ccc(-n2[nH]c(C)c(/C=N/c3cccc(C)n3)c2=O)cc1 | 2.26
20 | CN(C)CCCN1C(=O)c2cccc3cccc(c23)C1=O | -16
21 | COc1ccc(C(=O)NC(=S)NC2CCCCC2)cc1 | -0.0729
22 | CCCC1(CCC)NC(=O)N(CC(=O)Nc2cccc(OC)c2)C1=O | 3.28

Row | Compound | hERG current change (%, negative = inhibition) at 10uM [%]
23 | CNc1nc2c(c(=O)n(C)c(=O)n2C)n1Cc1ccccc1 | 0.607
24 | Cc1cccc(C)c1OCCn1nc(C(=O)O)c2ccccc2c1=O | 9.53
25 | Cc1cc(C)n2nc(C(=O)N/N=C/C=C/c3ccccc3)nc2n1 | -45.1
26 | C=CCCCCc1nc2ccccc2c(=O)n1N | 6.28
27 | O=c1oc(Nc2cccc(Cl)c2)nc2ccccc12 | 21.4
28 | COc1ccccc1OCCNC(=O)c1ccc(S(=O)(=O)N(C)C)cc1 | -1.21
29 | O=C(CSc1nnc(-c2cccnc2)n1Cc1ccco1)Nc1cccc(O)c1 | -10.5
30 | Cc1ccc(NC(=O)N/C=C/c2ccco2)c(C)c1 | -3.12
31 | CC1CCCCN1C(=O)COC(=O)c1cc([N+](=O)[O-])ccc1N1CCOCC1 (centres unmarked) | -15.5
32 | CC(O/N=C/c1ccc(OC(F)F)cc1)C(=O)Nc1cccc(S(=O)(=O)N2CCOCC2)c1 (centres unmarked) | -60.5
33 | Cc1ccc(CCNC(=O)CS(=O)Cc2nc(-c3ccccc3F)oc2C)cc1 (centres unmarked) | -31.2
34 | COc1cccc(C(=O)N/N=c2\sc3ccccc3n2C)c1 | -4.81
35 | Brc1ccc(CSc2nccn2-c2ccccc2)cc1 | -0.228
36 | Cc1c(C(=O)Nc2ccc(Cl)cc2)c2ccccn2c1C(=O)c1ccccc1 | 3.87
37 | Cc1nn2c(NC(C)C)c3c(nc2c1-c1ccccc1)CCC3 | 1.99
38 | Cc1cccc(C=Nc2ccccc2C(N)=O)c1 | 12.7
39 | COc1ccc(-n2c(C)c(C)c3c(NCCCO)ncnc32)cc1 | -14.3
40 | COc1ccccc1/C=N/Nc1cc(C)nc(N2CCOCC2)n1 | 15.5
41 | CNC(=O)CS(=O)(=O)CC(=O)Nc1cc(OC(C)C)c(Cl)cc1Cl | 9.86
42 | COC(=O)c1cnn(-c2ccccc2)c1/C=N/NC(=S)Nc1ccccc1 | 9
43 | Cc1cc(C(=O)OCC(=O)NCc2ccccc2Cl)c(C)o1 | 19
44 | Cc1ccc(-c2nn3c(C)nnc3s2)cc1NC(=O)c1cccs1 | -20.5

Row | Compound | hERG current change (%, negative = inhibition) at 10uM [%]
45 | NC(=O)CCn1nc(-c2ccc(Cl)cc2)c2ccccc2c1=O | -30.9
46 | COc1c(C)cc(C(=O)C2CCCN(C(=O)CCc3scnc3C)C2)cc1C (centres unmarked) | -21.7
47 | O=C(NCc1ccco1)/C(=C\c1ccco1)NC(=O)c1ccccc1Cl | -35.1
48 | CC(OC(=O)CCN1C(=O)C2CC=CCC2C1=O)C(=O)Nc1cccc(C#N)c1 (centres unmarked) | -25.4
49 | COc1ccc(CNC(=O)C[C@H]2C(=O)N(C3CCCCC3)C[C@@H]2Cc2ccccc2)cc1 | -5.71
50 | COc1ccc(S(=O)(=O)n2nc(-c3cc(OC)c(OC)c(OC)c3)cc2N)cc1OC | -2.63
51 | CSCCC(NC(=O)COc1ccccc1)C(=O)OCCOc1ccc(C)cc1 (centres unmarked) | -10.7
52 | COc1ccc(Cc2nnc(NC(=O)CS(=O)(=O)c3ccccc3)s2)cc1OC | 15.9
53 | CCCN1CCC(=NNC(=O)c2ccc(Br)o2)CC1 | -7.22
54 | COc1ccc(C)cc1S(=O)(=O)N1CCN(S(=O)(=O)c2cc(C)ccc2OC)C(C)C1 (centres unmarked) | -14.6
55 | Cc1noc(C)c1COC(=O)/C=C/c1ccc(Cl)cc1 | 0.131
56 | Cc1ccc(N(CC(=O)NCc2ccccn2)S(=O)(=O)c2ccccc2)cc1C | 2.05
57 | COC(=O)c1ccc(COc2ccccc2/C=C/C(=O)c2ccc(OCC(=O)O)cc2)cc1 | 3.76
58 | CC1(C)CC(=O)c2ccc(OCc3ccc([N+](=O)[O-])cc3)cc2O1 | -57.7
59 | COc1ccc(C2CC(c3ccc(Br)cc3)=NN2C(=O)CSC2=NCCS2)cc1 (centres unmarked) | 2.68
60 | CCOC(=O)c1c(C)[nH]c(C)c1S(=O)(=O)NCCCc1ccco1 | 3.28
61 | O=C1CSC(=S)N1/N=C/c1ccc(C(F)(F)F)cc1 | 21.4
62 | CCOC(=O)C1(Cc2ccccc2Cl)CCN(S(=O)(=O)N(C)C)CC1 | -13.3
63 | OC1(C#CCCN2CCCCC2)c2ccccc2-c2ccccc21 | -25.3
64 | Cc1cccc(C(C(=O)NCc2ccc(F)cc2)N(C(=O)c2csnn2)C2CC2)c1 (centres unmarked) | -20.7
65 | COc1ccc(N2CCN(C(=O)CN(c3cccc(OC)c3)S(=O)(=O)c3ccccc3)CC2)cc1 | -19.4
66 | CCC(C)(C)n1nnnc1C(c1ccc2ncccc2c1)N1CCN(c2ccc(O)cc2)CC1 (centres unmarked) | -31.7

Row | Compound | hERG current change (%, negative = inhibition) at 10uM [%]
67 | FC(F)(F)c1cnc(C(c2ccccc2)c2ncn[nH]2)c(Cl)c1 (centres unmarked) | 16.8
68 | Cc1oc(-c2ccc(Cl)cc2)nc1CSCC(=O)NCCCN1CCOCC1 | -5.13
69 | COc1ccccc1C(=O)Nc1ccc(OCC(=O)N2CC(C)CC(C)C2)cc1 (centres unmarked) | -10.2
70 | CCN(CC)c1nc(C#N)cc(-c2ccc(OC)cc2)n1 | 1.52
71 | O=C(OC1CCOC1=O)c1ccc(Cl)c(S(=O)(=O)N2CCCCC2)c1 (centres unmarked) | -4.58
72 | CN(C)/C=C/C=C1C(=O)CCCC1=O | -4.38
73 | COC(=O)C1(C)NC(c2ccc(Cl)cc2)C2C(=O)N(c3ccccc3)C(=O)C21 (centres unmarked) | -3.27
74 | COc1ccc(CC(=O)NC(c2ccccc2)c2ccc(C)cc2)c(OC)c1 (centres unmarked) | 11.3
75 | Nc1nc(SCc2ccc([N+](=O)[O-])cc2)nc2nc3c(cc12)CCCC3 | 9.35
76 | COc1ccc(NC(=O)CC23CC4CC(CC(C4)C2)C3)cn1 | 2.19
77 | O=C(O)c1cccc(NC2=Nc3cccc4cccc2c34)c1 | 14.3
78 | O=C(Nc1ccc2nc3n(c(=O)c2c1)CCCCC3)c1ccccc1Cl | -45.6
79 | COc1cc(C(=O)Nc2ccccc2C(=O)Nc2ccccn2)cc(OC)c1OC | -22.5
80 | O=C(Nc1ccc(-c2nc3ccccc3o2)cc1)c1ccc2c(c1)OCO2 | 11
81 | Cc1nn(C)c(C)c1S(=O)(=O)Nc1ccc2c(c1)OCO2 | 6.46
82 | Cc1ccnc(NCc2ccc(Br)cc2)c1 | -1.01
83 | CCCC(=O)NCCc1cc2ccc(C)c(C)c2[nH]c1=O | 5.38
84 | COCCN1C(=O)N[C@H](c2cccc(C(F)(F)F)c2)C(C(=O)OC)=C1C | -31.7
85 | Cc1ccc(S(=O)(=O)NC2OC(=O)C(Cl)=C2Cl)cc1 (centres unmarked) | -3.55
86 | CCOC(=O)c1ccc(N=C(CC)c2c(O)n(C)c(=O)n(C)c2=O)cc1 | -4.89
